Data reported in publication PMC11342335 (2024).
Where two headings read alike, the source gives them in different places. Blank lines part the entries; values can stand above or below the binder they belong to.

How the values were obtained:
Experiment in all cases: SPR
[1] = target: T1, human sortilin (R&D Systems, 3154-ST) (human, UniProt Q99523 78-755)
[2] = target: T2, murine sortilin (R&D Systems, 2934-ST) (murine, UniProt Q6PHU5 74-754)
T2 chain: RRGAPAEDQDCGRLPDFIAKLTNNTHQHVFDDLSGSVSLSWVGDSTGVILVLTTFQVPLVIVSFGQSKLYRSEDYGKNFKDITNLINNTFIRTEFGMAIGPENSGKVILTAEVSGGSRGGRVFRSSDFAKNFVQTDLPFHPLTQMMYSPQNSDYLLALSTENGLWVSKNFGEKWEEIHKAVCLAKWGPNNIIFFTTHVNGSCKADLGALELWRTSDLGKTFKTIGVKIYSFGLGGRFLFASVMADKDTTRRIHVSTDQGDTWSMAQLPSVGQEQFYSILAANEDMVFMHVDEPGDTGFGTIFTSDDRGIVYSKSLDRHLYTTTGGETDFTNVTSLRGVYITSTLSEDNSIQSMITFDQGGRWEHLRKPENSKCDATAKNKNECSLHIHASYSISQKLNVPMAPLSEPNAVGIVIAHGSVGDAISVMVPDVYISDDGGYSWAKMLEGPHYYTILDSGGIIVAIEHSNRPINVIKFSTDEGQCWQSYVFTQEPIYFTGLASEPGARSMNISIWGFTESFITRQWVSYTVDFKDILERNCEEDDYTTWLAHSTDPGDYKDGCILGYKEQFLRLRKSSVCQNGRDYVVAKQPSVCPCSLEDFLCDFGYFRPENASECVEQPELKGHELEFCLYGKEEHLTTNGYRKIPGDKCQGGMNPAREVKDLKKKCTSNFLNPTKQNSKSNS

[3] = target: T1, human sortilin (R&D Systems, 3154-ST); remark: listed apart in the source

Kd [1]: 118 nM
B1: A3-ABD (His6-A3-G4S-ABD035) (designed binder)
chain: VDNKFNKEIEEAGAEIIQLPNLNRWQKGAFIVSLKDDPSQSANLLAEAKKLNDAQAPK

Kd [1]: 155 nM
Kd [2]: 76 nM
B2: C1-ABD (His6-C1-G4S-ABD035) (designed binder)
chain: VDNKFNKERYAAKGEITYLPNLNNKQHMAFDMSLRDDPSQSANLLAEAKKLNDAQAPK

Kd [1]: 37 nM
Kd [2]: 57 nM
Kd [3]: 38 nM
B3: G11-ABD (His6-G11-G4S-ABD035) (designed binder)
chain: VDNKFNKENAGARGEIIFLPNLNKNQGWAFKHSLMDDPSQSANLLAEAKKLNDAQAPKGGGGSLAEAKVLANRELDKYGVSDFYKRLINKAKTVEGVEALKLHILAALP

Kd [1]: 102 nM
Kd [2]: 48 nM
B4: F6-ABD (His6-F6-G4S-ABD035) (designed binder)
chain: VDNKFNKENVWARGEITFLPNLNSKQHQAFHMSLDDDPSQSANLLAEAKKLNDAQAPK
